Measurements as given in the supplement of paper PMC11417369.
Some of the results follow.

The sequences below were run on PfHDP1 homeodomain (GST-tagged) (assay: gcPBM binding intensity (ln(normalized median fluorescence intensity)); higher = stronger DNA binding).
Summary of the method: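 GST-tagged P. falciparum DNA-binding domains produced in E. coli were incubated for 1 h on an Agilent 4 × 180k array of primer-extended double-stranded 36-bp intergenic genomic probes with negative controls. Binding intensity is the highest Masliner-normalised natural-log median intensity across replicate spots of either probe orientation, with bound protein detected by Alexa488 anti-GST antibody at 488 nm.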

Sequence | gcPBM binding intensity (ln)
ATAGGTGAATACTAATATAAATTCAAGAGGGAAAAG [CACACA_negctrl_site720] | 6.17
TGATATTATATATATACACACATGTATGTATATATA [CACACA_site1364] | 6.5
ATAAATATATGATAAAGTACATATTTATATAATAAA [XGTACX_site7263] | 6.22
ATGTATCTATATATATGTACACATATTTTAATTAAA [XGTACX_site3673] | 6.66
ATATTTATTTATAATTGTACTAATAATATATTTTAA [XGTACX_site587] | 6.1
TTTTTCATGTTTATTAGTACATATATTAAGAATGGA [XGTACX_site3493] | 6.35
TTTTGTAAATATATATGTACATATATATATATATAT [XGTACX_site5803] | 9.31
ACCTATTTATAATAGTGTACGTACAAATTTGTTTAC [XGTACX_site8176] | 6.71
AAAATAAAAAATTAATGTACTTAGAATTGTCACTAA [XGTACX_site1346] | 5.87
TAAAATAATAAACAGAAGAAATCATTCATATAAAAA [XGTACX_negctrl_site502] | 6.02
AATTTGTTGAAACACACACACACATACATATATATA [CACACA_site2287] | 7.02
GGAATAAATAATATTATACACACGTATATTATTATA [CACACA_site2435] | 6.31
AAGCTTTCATAAAGATGTACTTTTTAAAAATAATCT [XGTACX_site5725] | 6.07
TGTGCATAATTTTGTGCACACCACGCTAATAATTTT [CACACA_site2915] | 11.5
CAAAAAAAGGAAAAGATACACACCGTAAATTAAAAT [CACACA_site3612] | 6.66
AAATTTAGGAACATTATATATATATATATATATATA [CACACA_negctrl_site862] | 9.43
TATTTCATCTTATTTTAGGAAAAACTAATATATAAG [CACACA_negctrl_site1823] | 6.06
TATTCGTCTTTTTTCTCACACACCCTTTTTATTAAA [CACACA_site2508] | 7.09
GAACATTTGAAATATGCACACATGTATAAACCTACA [CACACA_site2654] | 9.12
TAAAAATAAAGAAAATGTACATAAATAATAATACAT [XGTACX_site2278] | 6.45
AAATTAAAGGCATAAAAGAAAATATTTAATAAAAAA [CACACA_negctrl_site1689] | 6.08
AAAGAAAATAACAAAATTTTGAAAACATCACATTCG [CACACA_negctrl_site89] | 6.83
ATATATAATAAACAGGTGCATTGTTTTATTTTGTAT | 8.8

Sequence | gcPBM binding intensity (ln)
TTTTTTTTAATTGTGATACGTATATTATTTAATGAT [CACACA_negctrl_site38] | 6.36
ACCAGTTCTTAATACAAATATGTACATATATATATA [GTGCAC_negctrl_site56] | 9.03
AGCAGGATTAAAAAAAGTACAAGAATTAATATTTAA [XGTACX_site3413] | 6.32
TATATCTATAATATTACACACATATATTTATATTTT [CACACA_site7595] | 6.59
AATTATTATCCCCTCACACACAAAAATAAAAAGAAT [CACACA_site2885] | 7.49
ATTTTTTATTGTTATAAAAAAAAAATTAAACAATTA [CACACA_negctrl_site1077] | 6.25
ATTATTTTATGAGACATAAAAAAAAAAAAAAAAAAA [CACACA_negctrl_site1067] | 6.18
AGATGAGAGATATATACACACAATAATACCTATTTA [CACACA_site6542] | 6.47
TTATAACTTTTCACAAGTACATATATATATGTATAA [XGTACX_site2306] | 6.66
TTTGGAAAGCGTGATTTTTGACAAACACAAAAAAAA [CACACA_negctrl_site651] | 5.94
ATATATATGTTTTTATGTACATATTTTTCTCCTTCA [XGTACX_site5899] | 6.7
TTTTTATTCCAGTATTCACACACGAATAACCACATA [CACACA_site1897] | 6.42
ATTTTCTTTTTTAAACGTACACATATTAAATATATA [XGTACX_site7773] | 6.99
AATAAATTCATGAATTGTACGTAATGATAACATGAA [XGTACX_site2591] | 6.57
AAAAAAAGGTAAAATTGTACATACGCACAAAAATAT [XGTACX_site2887] | 6.78
TGCACGCACAGACACACACACAACTAAAAAATAATG [CACACA_site7250] | 7.5
TAATATCGTATATGAGTGCAATATTTTAGATTTTGA | 9.08
AATATATCAAAAATGATGACATAAATATATTAATTT [GTGCAC_negctrl_site530] | 6.13
ATATTATTTATAAAAGTGCAAAAATCACTTCTTTTA [GTGCAC_site9656] | 7.77
TTTAAAAAGTTATGAAGTACATATATATATATATAT [XGTACX_site2188] | 9.33
ATTTCCTTGAATGTTGCATGCTGTATTTTAATTAAA [TGCATGCA_site280] | 7.73
AAAAAAAGGAAATTTACACACACATATAATATACAT [CACACA_site3297] | 6.95
TAGATTATTATACTAGTGCAAATTATTTAAGAAAAA | 9.87

Sequence | gcPBM binding intensity (ln)
TAAATTTTTCTAAGTGCATGTTAATTTTTCAATTTA [TGCATGCA_site906] | 7.99
AAAAAAAAAAAGTGCACACATAAAAATATGATCTAA [CACACA_site572] | 9.08
AAAGAGAAACAAAATTGTACATTATATTGTAGACGT [XGTACX_site976] | 6.69
TATATTTATAAGTGTACACATTATATAAATCCCTAT [CACACA_site6122] | 6.73
GAACAAAATGATAGAAGTACAAATATTTATTTTGTT [XGTACX_site7146] | 6.52
TGGGAACAATATATTTGTACTTAAATAAATAAAAAA [XGTACX_site6762] | 6.36
TTTTTTTTTTTTGTCACACACCTTCATAAGAAAAAA [CACACA_site4779] | 6.58
ATCATCACATAAGAAAATAGATAAAAAAAAAAAAAT [XGTACX_negctrl_site589] | 6.25
TAAATCCGCAGGCACACACACATATTAAGAAAAAAA [CACACA_site6061] | 6.48
GTACAGATATTGTACATACACACCTATATAAATATC [CACACA_site5739] | 6.51
ATGAAAAAACATAATTGTACAAAAGTTGGATTCGAT [XGTACX_site7732] | 7.56
ATTAAATGATTCATATGTACATAAATAAATAAATAT [XGTACX_site2249] | 6.8
TTTCTTTTTAAAGTGTATTAAAATTGAATAAAAAGA [XGTACX_negctrl_site408] | 6.71
TATTAATATTTACACACATGCGCACACATAAATAAA [TGCATGCA_site609] | 7.97
AAAAAAAAAAAACATACACACAAGAACAAAATATGA [CACACA_site3002] | 6.76
AGTCTTTTACATTGCACACACATTTCTTTCCTTTTG [CACACA_site2988] | 9.94
TAATTAGCATAATACACATGCATACATTTATATATA [TGCATGCA_site542] | 6.77
TACATATATCTATGTGTGCACTTATTTCCGGACAAA | 9.61
TATTTAAAAGATGAAAGTACACATTTAATTACATTT [XGTACX_site3781] | 6.17
ATGTGTATACTAAGAACACACAAGTTACTTGGTGTT [CACACA_site6864] | 6.41
TATATTTAACATACTTTTTTTTTTTTTTTTTTTTTT [CACACA_negctrl_site938] | 6.96
TAAGAAAAATATATATGTACACATATATATATATAT [XGTACX_site8542] | 9.25
AACTTTTATACGGATACACACAAAAAAAAATAAAAA [CACACA_site6547] | 6.61

Sequence | gcPBM binding intensity (ln)
TGTATGTTATATACAACACACAAAAAAAAACAAGTT [CACACA_site301] | 6.51
TATCTGTATTTGTATACACACAAATGTATTTATTTA [CACACA_site4830] | 6.68
TACAATATTTCGAGCTTGCACTTTTATTAAGTAAAT | 7.68
TATACAGACAGACACACACACATATATAAATATGTA [CACACA_site6912] | 6.69
ATTATTATTTTTAACTGTACATAGATATAGATATCC [XGTACX_site8714] | 6.47
TTTTTAAAATATTTAACACACAATTATAATGCATAA [CACACA_site3932] | 6.78
AGTAGTCTGGAGAAATGTACACAGTATCTGGTAGCT [XGTACX_site4871] | 6.28
AATATGTGTATAGATAGTACACATGCTGATAATATA [XGTACX_site5941] | 6.59
AAAATTTTGGAACGTGCACACATATGTAATATATAT [CACACA_site9004] | 9.19
ATGTCCTATATTAGTACACACATGAAAATATAAATA [CACACA_site7497] | 6.69
AACCATACACAAATAAACATAGACACAGATACCTCC [CACACA_negctrl_site598] | 6.63
AATATAAAAAAAAACAAAAAAAAAATTTTGGTTCAC [CACACA_negctrl_site1290] | 5.77
TTATTGTTATTTGTTTGTACATAATATAATATATTA [XGTACX_site6477] | 6.47
ACAATTAATCAAACAAGTACAAAATATATCCCTATT [XGTACX_site6223] | 6.35
TCCTATGATGATGATAGTACATATGAGTTCAAAAAA [XGTACX_site273] | 6.02
AATAATAAATAAATGTGTACTTAAAAATATTATATT [XGTACX_site3005] | 6.45
CAAAGTATTATGATTACACACATGTGCTTTTTTCTT [CACACA_site163] | 6.36
TTGTATCATATATTATGTACATATTGATTTATTACC [XGTACX_site12] | 6.41
TAAGTCATATAAATGTGTACATAAAAAAAAAAAATG [XGTACX_site1645] | 6.77
TTTTTTTTTTTTTTTTCACACATTGTACTTTTTTAT [CACACA_site5193] | 6.41
